Positions count from the first letter of the chain named. Some of the results follow.
Experiments:
RBFOX1 RRM [1] = target: T1, RBFOX1 RRM (Homo sapiens, UniProt Q9NWB1 109-208); assay: EMSA; HiTS-Eq, 1 nM pool, 10 min; buffer printed only for the single-RNA assays: 10 mM Tris pH 7.5, 150 mM NaCl, 3.4 mM EDTA, 0.001% NP-40, 30 C; details: tags: His6 N-terminal (pET28a); label: 5' 32P
T1 sequence: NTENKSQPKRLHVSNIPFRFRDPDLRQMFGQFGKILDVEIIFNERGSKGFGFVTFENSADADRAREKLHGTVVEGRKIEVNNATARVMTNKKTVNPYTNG
How it was run: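 Purified wild-type or mutant RbFox RRM at increasing concentrations was equilibrated with 1 nM of 5′-radiolabelled RNA carrying 7 randomized nucleotides for 10 min in 50 µL. Unbound RNA was separated by 8% native PAGE and sequenced. Relative association constants came from read-count changes of each RNA species compared with the control reaction, normalised to the cognate motif.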

RBFOX1 RRM [2] = target: T1, RBFOX1 RRM; assay: competition; 10 mM Tris pH 7.5, 150 mM NaCl, 3.4 mM EDTA, 0.001% NP-40, 30 C; details: tags: His6 N-terminal (pET28a)

B1: AUCCUUG (DNA:RNA)
RNA: GGGAGACCGGAAUUCAGAUUGUCCAUCCUUGUUAAAUCCCGUCGUAGCCACCA
DNA 1: CAATCTGAATTCCGGTCTCCC
DNA 2: TGGTGGCTACGACGGGATT
Question: B1 was tested. Which binding signal (RBFOX1 RRM [1]) did it give?
Answer: 0.00658 KA relative to UGCAUGU

B2: CUGUCAU (DNA:RNA)
RNA: B1 RNA with A25C, C27G, C28U, U29C, U30A, G31U
DNA 1: CAATCTGAATTCCGGTCTCCC
DNA 2: TGGTGGCTACGACGGGATT
Question: Which binding signal (RBFOX1 RRM [1]) does the source give for B2 here?
Answer: 0.00999 KA relative to UGCAUGU

B3: GUAGAAC (DNA:RNA)
RNA: B1 RNA with A25G, C27A, C28G, U29A, U30A, G31C
DNA 1: CAATCTGAATTCCGGTCTCCC
DNA 2: TGGTGGCTACGACGGGATT
Question: How did the binding signal (RBFOX1 RRM [1]) turn out when B3 was run?
Answer: 0.00867 KA relative to UGCAUGU

B4: UAACAUC (DNA:RNA)
RNA: B1 RNA with A25U, U26A, C27A, U29A, G31C
DNA 1: CAATCTGAATTCCGGTCTCCC
DNA 2: TGGTGGCTACGACGGGATT
Question: How did the binding signal (RBFOX1 RRM [1]) turn out when B4 was run?
Answer: 0.00302 KA relative to UGCAUGU

B5: ACAGGCU (DNA:RNA)
RNA: B1 RNA with U26C, C27A, C28G, U29G, U30C, G31U
DNA 1: CAATCTGAATTCCGGTCTCCC
DNA 2: TGGTGGCTACGACGGGATT
Question: Which binding signal (RBFOX1 RRM [1]) does the source give for B5 here?
Answer: 0.00716 KA relative to UGCAUGU

B6: GCAAUGC (DNA:RNA)
RNA: B1 RNA with A25G, U26C, C27A, C28A, U30G, G31C
DNA 1: CAATCTGAATTCCGGTCTCCC
DNA 2: TGGTGGCTACGACGGGATT
Question: Which binding signal (RBFOX1 RRM [1]) does the source give for B6 here?
Answer: 0.0163 KA relative to UGCAUGU

B7: AUCCUAU (DNA:RNA)
RNA: B1 RNA with U30A, G31U
DNA 1: CAATCTGAATTCCGGTCTCCC
DNA 2: TGGTGGCTACGACGGGATT
Question: B7 was tested. Which binding signal (RBFOX1 RRM [1]) did it give?
Answer: 0.00057 KA relative to UGCAUGU

B8: CAAACUA (DNA:RNA)
RNA: B1 RNA with A25C, U26A, C27A, C28A, U29C, G31A
DNA 1: CAATCTGAATTCCGGTCTCCC
DNA 2: TGGTGGCTACGACGGGATT
Question: With B8 as the binder, how does the binding signal (RBFOX1 RRM [1]) read?
Answer: 0.00187 KA relative to UGCAUGU

B9: GGUGUCA (DNA:RNA)
RNA: B1 RNA with A25G, U26G, C27U, C28G, U30C, G31A
DNA 1: CAATCTGAATTCCGGTCTCCC
DNA 2: TGGTGGCTACGACGGGATT
Question: For B9, which binding signal (RBFOX1 RRM [1]) is on record?
Answer: 0.00539 KA relative to UGCAUGU

B10: GCUUUAU (DNA:RNA)
RNA: B1 RNA with A25G, U26C, C27U, C28U, U30A, G31U
DNA 1: CAATCTGAATTCCGGTCTCCC
DNA 2: TGGTGGCTACGACGGGATT
Question: For B10, which binding signal (RBFOX1 RRM [1]) is on record?
Answer: 0.00507 KA relative to UGCAUGU

B11: CGGACAC (DNA:RNA)
RNA: GGGAGACCGGAAUUCAGAUUGUCCCGGACACUUAAAUCCCGUCGUAGCCACCA
DNA 1: CAATCTGAATTCCGGTCTCCC
DNA 2: TGGTGGCTACGACGGGATT
Question: B11 was tested. Which binding signal (RBFOX1 RRM [1]) did it give?
Answer: 0.0177 KA relative to UGCAUGU

B12: UAGACUA (DNA:RNA)
RNA: B11 RNA with C25U, G26A, A30U, C31A
DNA 1: CAATCTGAATTCCGGTCTCCC
DNA 2: TGGTGGCTACGACGGGATT
Question: How did the binding signal (RBFOX1 RRM [1]) turn out when B12 was run?
Answer: 0.0051 KA relative to UGCAUGU

B13: GGACUUC (DNA:RNA)
RNA: B1 RNA with A25G, U26G, C27A, G31C
DNA 1: CAATCTGAATTCCGGTCTCCC
DNA 2: TGGTGGCTACGACGGGATT
Question: B13 was tested. Which binding signal (RBFOX1 RRM [1]) did it give?
Answer: 0.02 KA relative to UGCAUGU

B14: CUGGACU (DNA:RNA)
RNA: B11 RNA with G26U, A28G, C29A, A30C, C31U
DNA 1: CAATCTGAATTCCGGTCTCCC
DNA 2: TGGTGGCTACGACGGGATT
Question: B14 was tested. Which binding signal (RBFOX1 RRM [1]) did it give?
Answer: 0.00842 KA relative to UGCAUGU

B15: UGACUCG (DNA:RNA)
RNA: B1 RNA with A25U, U26G, C27A, U30C
DNA 1: CAATCTGAATTCCGGTCTCCC
DNA 2: TGGTGGCTACGACGGGATT
Question: Which binding signal (RBFOX1 RRM [1]) does the source give for B15 here?
Answer: 0.0221 KA relative to UGCAUGU

B16: UAGUAGG (DNA:RNA)
RNA: B1 RNA with A25U, U26A, C27G, C28U, U29A, U30G
DNA 1: CAATCTGAATTCCGGTCTCCC
DNA 2: TGGTGGCTACGACGGGATT
Question: Which binding signal (RBFOX1 RRM [1]) does the source give for B16 here?
Answer: 0.00933 KA relative to UGCAUGU

B17: CCGUCAA (DNA:RNA)
RNA: B11 RNA with G26C, A28U, C31A
DNA 1: CAATCTGAATTCCGGTCTCCC
DNA 2: TGGTGGCTACGACGGGATT
Question: B17 was tested. Which binding signal (RBFOX1 RRM [1]) did it give?
Answer: 0.00242 KA relative to UGCAUGU

B18: AAUGUUA (DNA:RNA)
RNA: B1 RNA with U26A, C27U, C28G, G31A
DNA 1: CAATCTGAATTCCGGTCTCCC
DNA 2: TGGTGGCTACGACGGGATT
Question: For B18, which binding signal (RBFOX1 RRM [1]) is on record?
Answer: 0.0054 KA relative to UGCAUGU

Question: UGCAAGU (ssRNA) was tested. Which binding signal (RBFOX1 RRM [2]) did it give?
Answer: 335 nM

B19: UUAAUAA (DNA:RNA)
RNA: B1 RNA with A25U, C27A, C28A, U30A, G31A
DNA 1: CAATCTGAATTCCGGTCTCCC
DNA 2: TGGTGGCTACGACGGGATT
Question: Which binding signal (RBFOX1 RRM [1]) does the source give for B19 here?
Answer: 0.0029 KA relative to UGCAUGU
